Holding throughout (assay): Viability of human cancer cell lines after 72 h of drug (GDSC screen)
Compound in one experiment: COCC[n+]1c2c(n(Cc3cnccn3)c1C)C(=O)c1ccccc1C2=O [YM155]
As to conditions: top dose 5.12 µM. Here is the method: (§1)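 Human cancer cell lines in 384-well plates, medium with 10% serum, drug for 72 h over a 256-fold dose range (nine 2-fold or five 4-fold steps up to the top dose). Adherent lines were fixed and stained with the nucleic acid dye Syto60, suspension lines read with resazurin; signal relative to control wells, capped at 0 and 100%. One two-parameter sigmoid per drug and line, fitted in a mixed model over all curves with the slope shared within a line.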

Compound in the next experiment: COC(=O)[C@H](CCSC)NC(=O)c1ccc(NC[C@@H](N)CS)cc1-c1ccccc1 [FTI-277]
As to conditions: top dose 1.024 µM; top dose inferred. Here is the method: as §1

Compound in the next experiment: Cc1ccc(C(=O)N(CCCN)[C@@H](c2nc3cc(Cl)ccc3c(=O)n2Cc2ccccc2)C(C)C)cc1 [SB-715992]
The following applies: top dose 0.128 µM; top dose inferred. The procedure: as §1

Compound in another experiment: CCOc1nc(NC(=O)Cc2cc(OC)ccc2OC)cc(N)c1C#N [JNK Inhibitor VIII]
As to conditions: top dose 10 µM; top dose inferred. Here is the method: as §1

Compound in a further experiment: O=C(/C=C/c1cccc(S(=O)(=O)Nc2ccccc2)c1)NO [Belinostat]
The following applies: top dose 20 µM; top dose inferred. The procedure:
as §1

Compound in the next experiment: CC(=O)O[C@@]12CO[C@@H]1C[C@H](O)[C@@]1(C)C(=O)[C@H](O)C3=C(C)[C@@H](OC(=O)[C@H](O)[C@@H](NC(=O)OC(C)(C)C)c4ccccc4)C[C@@](O)([C@@H](OC(=O)c4ccccc4)[C@H]21)C3(C)C [Docetaxel]
The following applies: top dose 0.0125 µM. Here is the method: as §1

Compound in the next experiment: C[C@]1(O)C[C@@H](c2nc(-c3ccc4ccc(-c5ccccc5)nc4c3)c3c(N)nccn32)C1 [OSI-906]
As to conditions: top dose 2.56 µM; top dose inferred. The procedure:
as §1

Compound in the next experiment: CC1(C)CNc2cc(NC(=O)c3cccnc3NCc3ccncc3)ccc21 [AMG-706]
As to conditions: top dose 2 µM; top dose inferred. The procedure:
as §1

Compound in the next experiment: CN1CCN(c2ccc([N+](=O)[O-])c3no[n+]([O-])c23)CC1 [NSC-207895]
The following applies: top dose 20 µM; top dose inferred. Here is the method:
as §1

Compound in the next experiment: c1ccc2c(CCNc3ccc(Nc4ccncc4)cc3)c[nH]c2c1 [JNJ-26854165]
As to conditions: top dose 10 µM. The procedure: as §1

Compound in a further experiment: Cc1sc2c(c1C)C(c1ccc(Cl)cc1)=N[C@@H](CC(=O)OC(C)(C)C)c1nnc(C)n1-2 [JQ1]
Here is the method:
as §1

The mark [1] stands for this setting: top dose 1 µM, screen: GDSC drug entry 1218, top dose inferred.
[2] abbreviates: top dose 2.56 µM, screen: GDSC drug entry 163.

By IC50 is meant the dose at which the fit gives 50% viability; a limit (>, <) means that the fit lies beyond the doses tested. AUC, from the same fit, is the share of area under the viability curve across the 256-fold dose range; it is 1 without any effect and falls as sensitivity rises. For some of these results: A top dose marked as inferred is not printed in the source and was worked back from the curve model. For some of these results: An entry number marks a drug with two screens in the source, which often give different values.

One may read the IC50 as the concentration that inhibits the measured activity by half.

With “NCI-H1993 (lung adenocarcinoma, adherent)”, the AUC is 0.048 with YM155; 0.94 with FTI-277; 0.964 with SB-715992; 0.983 with JNK Inhibitor VIII; 0.706 with Belinostat; 0.982 with Docetaxel. Besides, the AUC with OSI-906 turned out to be 0.889; in the experiment with AMG-706 it was 0.983; in the experiment with NSC-207895, 0.98; with JNJ-26854165, 0.897; with JQ1 (setting [1]), 0.968; with JQ1 (setting [2]) it was 0.859. The IC50 in the experiment with YM155 was below 20 nM; with FTI-277 it was above 1020 nM; with SB-715992 it was above 128 nM; with JNK Inhibitor VIII, above 10000 nM; with Belinostat it was 5810 nM; with Docetaxel, above 12.5 nM. The IC50 with OSI-906 is above 2560 nM; with AMG-706 it was above 2000 nM; with NSC-207895, above 20000 nM; with JNJ-26854165 it was above 10000 nM; with JQ1 (setting [1]) it was above 1000 nM; with JQ1 (setting [2]) it was above 2560 nM.

Take “NCI-H2009 (lung adenocarcinoma, adherent)”: the AUC is 0.188 with YM155; 0.982 in the experiment with FTI-277; 0.962 in the experiment with SB-715992; 0.959 in the experiment with JNK Inhibitor VIII; 0.922 with Belinostat; 0.614 with Docetaxel. In addition, the AUC with OSI-906 amounted to 0.949; with AMG-706, 0.978; in the experiment with NSC-207895, 0.892; in the experiment with JNJ-26854165 it was 0.87; with JQ1 (setting [1]) it was 0.984; with JQ1 (setting [2]), 0.604. Also, the IC50 was 34.8 nM with YM155; above 1020 nM in the experiment with FTI-277; above 128 nM in the experiment with SB-715992; above 10000 nM in the experiment with JNK Inhibitor VIII; above 20000 nM with Belinostat; 1.64 nM in the experiment with Docetaxel. Moreover, the IC50 with OSI-906 is above 2560 nM; with AMG-706, above 2000 nM; with NSC-207895, above 20000 nM; with JNJ-26854165, above 10000 nM; with JQ1 (setting [1]) it was above 1000 nM; with JQ1 (setting [2]), 315 nM.

On to NCI-H2052 (mesothelioma, adherent), for which the AUC was 0.27 with YM155; 0.974 with FTI-277; 0.975 in the experiment with SB-715992; 0.983 in the experiment with JNK Inhibitor VIII; 0.887 with Belinostat; 0.8 with Docetaxel. Moreover, the AUC was found to be 0.982 with OSI-906; 0.979 with AMG-706; 0.914 with NSC-207895; 0.765 with JNJ-26854165; 0.608 in the experiment with JQ1 (setting [2]). The IC50 is 58.2 nM in the experiment with YM155; above 1020 nM with FTI-277; above 128 nM with SB-715992; above 10000 nM with JNK Inhibitor VIII; above 20000 nM with Belinostat; 8.11 nM with Docetaxel. For the same cell line, the IC50 is above 2560 nM with OSI-906; above 2000 nM in the experiment with AMG-706; above 20000 nM in the experiment with NSC-207895; 4690 nM in the experiment with JNJ-26854165; 344 nM in the experiment with JQ1 (setting [2]).

“NCI-H2110 (non-small cell lung carcinoma, adherent)”: the AUC was 0.04 with YM155; 0.956 with FTI-277; 0.803 with SB-715992; 0.979 with JNK Inhibitor VIII; 0.364 with Belinostat; 0.71 with Docetaxel. Besides, the AUC in the experiment with OSI-906 came to 0.669; in the experiment with AMG-706, 0.986; in the experiment with NSC-207895, 0.8; with JNJ-26854165, 0.929; in the experiment with JQ1 (setting [1]) it was 0.974; with JQ1 (setting [2]) it was 0.818. Besides, the IC50 is below 20 nM in the experiment with YM155; above 1020 nM with FTI-277; 65.2 nM with SB-715992; above 10000 nM in the experiment with JNK Inhibitor VIII; 521 nM with Belinostat; 3.1 nM in the experiment with Docetaxel. In addition, the 50% inhibitory concentration (IC50) with OSI-906 was 480 nM; with AMG-706, above 2000 nM; with NSC-207895, 9970 nM; in the experiment with JNJ-26854165 it was above 10000 nM; with JQ1 (setting [1]) it was above 1000 nM; with JQ1 (setting [2]), 1500 nM.

In the case of “NCI-H2172 (non-small cell lung carcinoma, adherent)”, the AUC stood at 0.655 in the experiment with YM155; 0.952 in the experiment with FTI-277; 0.966 in the experiment with SB-715992; 0.983 in the experiment with JNK Inhibitor VIII; 0.595 with Belinostat; 0.967 with Docetaxel. For the same cell line, the AUC was 0.592 with OSI-906; 0.981 with AMG-706; 0.974 with NSC-207895; 0.847 with JNJ-26854165; 0.981 with JQ1 (setting [1]); 0.829 in the experiment with JQ1 (setting [2]). Besides, the IC50 in the experiment with YM155 was 1010 nM; with FTI-277, above 1020 nM; with SB-715992, above 128 nM; in the experiment with JNK Inhibitor VIII, above 10000 nM; in the experiment with Belinostat, 2490 nM; in the experiment with Docetaxel, above 12.5 nM. Also, the IC50 with OSI-906 is 313 nM; with AMG-706 it was above 2000 nM; with NSC-207895, above 20000 nM; with JNJ-26854165 it was above 10000 nM; with JQ1 (setting [1]), above 1000 nM; with JQ1 (setting [2]), 2430 nM.
